Our source for the relative growth values is the supplement of paper PMC9446081.

Among all 39,000 compounds or so, about 220 (0.56%) showed activity. Some of the results follow.
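Also: static incubation at 37 °C against the wild-type strain, values averaged over two biological replicates.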

The subject of this assay is Escherichia coli K-12 BW25113. Briefly: relative growth (OD600 normalised to plate interquartile mean) (fraction); higher = less growth inhibition, active = 0.2 or less. To be noted: 50 µM; LB; incubation time: overnight (16-24 h).
`COc1ccc(S(=O)(=O)N(C)C[C@@H]2Oc3ccc(NC(=O)CCCN(C)C)cc3CC(=O)N([C@H](C)CO)C[C@@H]2C)cc1`: the relative growth was inactive: 1. For `COc1ccc(C#Cc2ccc3c(c2)[C@]2(C(=O)N3)[C@H](c3ccc(O)cc3)N3[C@H](c4ccccc4)[C@H](c4ccccc4)OC(=O)[C@H]3[C@@H]2C(=O)NC[C@H](O)c2ccccc2)cc1`, the relative growth is inactive: 1.03. In the case of `CCN(CC)C(=O)c1cccnc1`, the relative growth was inactive: 0.955. For the compound `COc1ccc(NC(=O)N(C)C[C@@H]2OCCCC[C@H](C)Oc3ccc(NS(=O)(=O)c4cccs4)cc3C(=O)N([C@H](C)CO)C[C@H]2C)cc1`, the relative growth is inactive: 0.941. As to `C[C@@H]1CCCCO[C@@H](CN(C)C(=O)Nc2ccc(F)cc2)[C@@H](C)CN([C@H](C)CO)C(=O)c2cc(NC(=O)C3CCCCC3)ccc2O1`, the relative growth is inactive: 1.04. With `COc1ccccc1NC(=O)N(C)C[C@H]1Oc2cc(Br)ccc2S(=O)(=O)N([C@@H](C)CO)C[C@H]1C`, the relative growth was inactive: 1. Regarding `CC(C)NC(=O)N(C)C[C@@H]1Oc2ccc(NS(=O)(=O)c3cn(C)cn3)cc2CC(=O)N([C@H](C)CO)C[C@H]1C`, the relative growth is inactive: 0.991.

As to `C[C@@H]1CN([C@H](C)CO)C(=O)c2cc(NS(=O)(=O)c3ccccc3)ccc2O[C@@H](C)CCCCO[C@H]1CN(C)C(=O)Nc1ccccc1`, the relative growth is inactive: 0.987. In the case of `O=C(CCNc1n[nH]c(=O)[nH]c1=O)N1CCOCC1`, the relative growth was inactive: 0.98. Regarding `C[C@@H]1CN([C@@H](C)CO)C(=O)c2cc(NS(C)(=O)=O)ccc2O[C@@H](C)CCCCO[C@H]1CN(C)Cc1ccncc1`, the relative growth was inactive: 1.01. On to `C/C=C/c1ccc2c(c1)O[C@H](CN(C)C(=O)c1ccc3c(c1)OCO3)[C@@H](C)CN([C@@H](C)CO)S2(=O)=O`, for which the relative growth was inactive: 1.02. Turning to `CC(C)(C)[S@](=O)N1Cc2cc(C(=O)NCc3ccc4c(c3)OCO4)nc(-c3cccc(-c4cccnc4)c3)c2[C@@H]1CCO`, the relative growth was inactive: 1. On to `COc1ccc(NC(=O)N(C)C[C@@H]2Oc3ccc(NC(=O)Cn4cnnn4)cc3CC(=O)N([C@@H](C)CO)C[C@@H]2C)cc1`, for which the relative growth is inactive: 1.03.

As for `CCC(C=CC(C)C1CCC2C3CC=C4CC(O)CCC4(C)C3CCC12C)C(C)C` (stereo not given), the relative growth was inactive: 1.17. As for `C[C@@H]1CN([C@@H](C)CO)C(=O)Cc2cc(NS(=O)(=O)c3cccs3)ccc2O[C@@H]1CN(C)CC1CC1`, the relative growth is inactive: 1.02.

With `C[C@H](CO)N1C[C@H](C)[C@@H](CN(C)C(=O)CN(C)C)Oc2cc(C#CC(C)(C)O)ccc2S1(=O)=O`, the relative growth was inactive: 1.01. On to `C[C@@H]1CCCCO[C@H](CN(C)S(=O)(=O)c2ccc(F)cc2)[C@@H](C)CN([C@@H](C)CO)C(=O)c2cc(NC(=O)Cc3ccccc3)ccc2O1`, for which the relative growth is inactive: 1.04. Consider `C[C@@H]1CN([C@H](C)CO)C(=O)c2cc(NC(=O)C3CCCCC3)ccc2O[C@@H](C)CCCCO[C@@H]1CN(C)Cc1ccc(Cl)c(Cl)c1`, for which the relative growth is inactive: 0.854.

On to `C[C@@H]1CN([C@@H](C)CO)S(=O)(=O)c2ccc(C#CC3CC3)cc2O[C@H]1CN(C)Cc1ccccc1F`, for which the relative growth is inactive: 0.917.

Take `Cc1noc(C)c1S(=O)(=O)Nc1ccc2c(c1)CC(=O)N([C@@H](C)CO)C[C@H](C)[C@@H](CN(C)Cc1ccc(-c3ccccc3)cc1)O2`: the relative growth was inactive: 1.04. Take `CN(C)Cc1cn(CC[C@H]2CC[C@@H](NS(=O)(=O)c3ccccc3)[C@@H](CO)O2)nn1`: the relative growth was inactive: 0.972. The same measure for `CN(C)CC(=O)N[C@H]1CC[C@H](CC(=O)NCCN2CCCCC2)O[C@H]1CO`: inactive: 1.01; for `C[C@@H]1CN([C@H](C)CO)C(=O)Cc2cc(NS(C)(=O)=O)ccc2O[C@H]1CN(C)C`: inactive: 0.974. The same measure for `C[C@@H]1CN([C@H](C)CO)C(=O)c2cccc(NC(=O)Nc3ccc4c(c3)OCO4)c2O[C@@H]1CN(C)S(C)(=O)=O`: inactive: 0.984; for `CN(C)C(=O)Cn1c(=O)oc2ccccc21`: inactive: 1.02.

Regarding `C[C@@H]1CN([C@H](C)CO)C(=O)c2cc(NS(=O)(=O)c3ccccc3)ccc2O[C@@H]1CN(C)S(=O)(=O)c1cccs1`, the relative growth is inactive: 1.01.

For `COc1ccc(S(=O)(=O)Nc2ccc3c(c2)CC(=O)N([C@@H](C)CO)C[C@H](C)[C@@H](CN(C)S(=O)(=O)c2c(C)noc2C)O3)cc1`, the relative growth was inactive: 1.02. Under `Cc1ccc(-c2nc(Nc3ccccc3F)sc2C)cc1` stands inactive: 0.941; under `COc1ccccc1-c1cnc2c(c1)C(=O)N([C@@H](C)CO)C[C@@H](C)[C@H](CN(C)C(=O)c1ccncc1)O2`, inactive: 0.993; under `COc1ccc(C#Cc2cnc3c(c2)C(=O)N([C@@H](C)CO)C[C@@H](C)[C@@H](CN(C)C(=O)CC2CC2)O3)cc1`, inactive: 1.02.

For the compound `Nc1ccc(OCc2ccccc2)cc1`, the relative growth was inactive: 0.997.

As to `C[C@@H]1CN([C@@H](C)CO)C(=O)c2cccc(NC(=O)NC3CCCCC3)c2O[C@@H]1CN(C)S(C)(=O)=O`, the relative growth was inactive: 0.984.

On to `CCCN(CCC)S(=O)(=O)c1ccc(C(=O)O)cc1`, for which the relative growth is inactive: 1.04.

`C[C@H](CO)N1C[C@H](C)[C@@H](CN(C)Cc2ccccc2C(F)(F)F)OCc2ccccc2-c2ccccc2C1=O`: the relative growth is inactive: 1.04. Consider `COCC#Cc1cnc2c(c1)C(=O)N([C@H](C)CO)C[C@@H](C)[C@@H](CN(C)C(=O)CN1CCOCC1)O2`, for which the relative growth was inactive: 0.983. The same measure for `C[C@@H]1CCCCO[C@@H](CN(C)S(=O)(=O)c2ccc(F)cc2)[C@@H](C)CN([C@@H](C)CO)C(=O)c2cc(NC(=O)NC3CCCCC3)ccc2O1`: inactive: 0.973; for `C[C@H]1CN([C@@H](C)CO)C(=O)Cc2cc(NC(=O)Cc3ccccc3)ccc2O[C@@H]1CN(C)S(=O)(=O)c1ccccc1`: inactive: 0.993; for `O=C(O)c1ccc(N[C@@H]2O[C@H](CO)[C@@H](O)[C@@H]2O)cc1`: inactive: 0.978. Turning to `COc1ccc(NC(=O)N(C)C[C@H]2OCCCC[C@@H](C)Oc3ccc(NS(=O)(=O)c4ccc(F)cc4)cc3C(=O)N([C@H](C)CO)C[C@H]2C)cc1`, the relative growth is inactive: 0.998. Consider `COc1ccc(NC(=O)Nc2cccc3c2O[C@@H](CN(C)Cc2ccc(C(F)(F)F)cc2)[C@H](C)CN([C@H](C)CO)C3=O)cc1`, for which the relative growth was inactive: 0.719.
